The values below come from article PMC4242493.

Some of the results follow. The list includes weakly bound sequences.

The target of the test is MaxL homodimer (UniProt P61244). Nature of the test: universal protein-binding microarray (PBM). The following applies: PBS-based mixture, 10 nM His-tagged protein dimer, 2% milk, 200 ng/uL BSA, 50 ng/uL salmon testes DNA, 0.02% TX-100; detection with Alexa 488 anti-His …; high values mean tight binding; most listed sequences are background and not binding sites; double strand, one strand shown.
UniProt P61244, sequence (P61244 whole entry): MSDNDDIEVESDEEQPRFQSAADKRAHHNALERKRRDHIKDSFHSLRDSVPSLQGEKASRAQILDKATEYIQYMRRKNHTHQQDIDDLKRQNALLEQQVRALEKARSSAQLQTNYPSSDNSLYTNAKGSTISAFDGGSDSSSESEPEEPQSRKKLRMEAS
Turning to AACCGCGA, the binding signal (normalized occupancy) was 0.0724. The same measure for AACATGAC: 0.0831. Turning to AGTATCGC, the binding signal (normalized occupancy) was 0.0728. Turning to CTCTCCAA, the binding signal (normalized occupancy) came out at 0.0761. On to GATCGAAA, for which the binding signal (normalized occupancy) turned out to be 0.0715. As to CCCGCACA, the binding signal (normalized occupancy) stood at 0.085. The same measure for GCCATCCA: 0.0781; for CCGAGGTC: 0.0666; for CTGCCTTA: 0.0723. As to CCTGTACC, the binding signal (normalized occupancy) amounted to 0.0769. Regarding ACGCCCCG, the binding signal (normalized occupancy) was 0.076. Regarding CGCCCCAG, the binding signal (normalized occupancy) stood at 0.0687.

In the case of ACGCTCAT, the binding signal (normalized occupancy) was 0.0832. Regarding CCCTCAAA, the binding signal (normalized occupancy) stood at 0.0701. As to CTCGAAGA, the binding signal (normalized occupancy) was found to be 0.0656. In the case of GCTTCGAC, the binding signal (normalized occupancy) turned out to be 0.067.

Take GCTGGTCA: the binding signal (normalized occupancy) was determined as 0.0754. In the case of CCATTCTC, the binding signal (normalized occupancy) came to 0.0771. Regarding CGATGATC, the binding signal (normalized occupancy) was 0.0726. Regarding AAAATCTC, the binding signal (normalized occupancy) is 0.0762. As for CACGCCCA, the binding signal (normalized occupancy) amounted to 0.0892. Consider CTCATACC, for which the binding signal (normalized occupancy) came to 0.0778. Regarding AGTAGCAG, the binding signal (normalized occupancy) stood at 0.0738.

As to AACAAGAC, the binding signal (normalized occupancy) was found to be 0.0749. The same measure for GATCAAAA: 0.0755.

With AGCGGGGC, the binding signal (normalized occupancy) came out at 0.068. As to GAGCTCTA, the binding signal (normalized occupancy) was found to be 0.069. As to CAATAGAA, the binding signal (normalized occupancy) came out at 0.0756. On to GCTTGTTA, for which the binding signal (normalized occupancy) was found to be 0.0749.

Consider ACTTCTAT, for which the binding signal (normalized occupancy) stood at 0.0767. In the case of AGCCTTAC, the binding signal (normalized occupancy) worked out at 0.0711.

Turning to CGTGGTAA, the binding signal (normalized occupancy) amounted to 0.096. The same measure for AACCCCAT: 0.0804; for ACGCGGGC: 0.0759.

With ATATCATA, the binding signal (normalized occupancy) is 0.0893. The same measure for GGCCAGAC: 0.0701; for ACACGTGT: 0.545.

CTCGTTTA: the binding signal (normalized occupancy) came to 0.0741.

Regarding ATATATCA, the binding signal (normalized occupancy) worked out at 0.0877. Regarding CGTTGCAA, the binding signal (normalized occupancy) amounted to 0.0707. On to ACCCGTTC, for which the binding signal (normalized occupancy) amounted to 0.0827.

Turning to CAGGAGCA, the binding signal (normalized occupancy) worked out at 0.0687. Under GGCACACC stands 0.0779; under AAATGGCG, 0.0746; under GCTCAGAC, 0.0703. For the sequence GGTAGACC, the binding signal (normalized occupancy) was determined as 0.0727. For TAAGTTCA, the binding signal (normalized occupancy) amounted to 0.0774. Under CAAGGCGC stands 0.0709.

Consider GGCTGGTA, for which the binding signal (normalized occupancy) amounted to 0.073. In the case of GGGTAACC, the binding signal (normalized occupancy) turned out to be 0.0704. Under GGTCAAGA stands 0.0783. Turning to CACCCCAC, the binding signal (normalized occupancy) is 0.0934. CAATCCGC: the binding signal (normalized occupancy) stood at 0.0713. Under ATCCTGAG stands 0.0762; under AACGGTGA, 0.0739; under GTCCGCAA, 0.0768. AACGGGGG: the binding signal (normalized occupancy) worked out at 0.0767. Under AAAAACGT stands 0.0736; under ATTAGAAG, 0.0762; under ATTGACCG, 0.0761.

For the sequence TGCCTCCA, the binding signal (normalized occupancy) amounted to 0.08. Under AATCCGAT stands 0.0764; under CCTTGCCC, 0.0729; under ACGGGTCC, 0.0672. On to CAATCTAC, for which the binding signal (normalized occupancy) is 0.0764.

Regarding AGGGATTC, the binding signal (normalized occupancy) was determined as 0.0746.

In the case of ACTAGTTC, the binding signal (normalized occupancy) turned out to be 0.0709. For TCCAATAA, the binding signal (normalized occupancy) was 0.073. Under AGTAACTG stands 0.0746; under CTATATGA, 0.0846; under AGCGGTCA, 0.0736. On to GTCACCTA, for which the binding signal (normalized occupancy) amounted to 0.0725. On to CAGACGCC, for which the binding signal (normalized occupancy) was determined as 0.0712. Regarding ATCCTGCA, the binding signal (normalized occupancy) was 0.0768. In the case of CCCTCCGG, the binding signal (normalized occupancy) was found to be 0.0678. CACCGCCC: the binding signal (normalized occupancy) worked out at 0.0721. As to CTAGATGA, the binding signal (normalized occupancy) was 0.0788. As for CCTCTTCA, the binding signal (normalized occupancy) was 0.0765.

GCTCATCC: the binding signal (normalized occupancy) is 0.0753. Take GATCTCAA: the binding signal (normalized occupancy) worked out at 0.0701. In the case of AAACGTTT, the binding signal (normalized occupancy) is 0.0755.

For ATTCTAAG, the binding signal (normalized occupancy) was determined as 0.0803. Take AATCGTTC: the binding signal (normalized occupancy) was determined as 0.0763. For AACTTCAG, the binding signal (normalized occupancy) is 0.0716. In the case of AACAATAG, the binding signal (normalized occupancy) came to 0.076. Consider AACTCATT, for which the binding signal (normalized occupancy) was determined as 0.0748. As for CATTCCTC, the binding signal (normalized occupancy) came to 0.0759.

In the case of ACGGTGCC, the binding signal (normalized occupancy) turned out to be 0.0705. Turning to CCTCCGCG, the binding signal (normalized occupancy) was found to be 0.0696. Under AGTACTAA stands 0.0769; under CCAAGGCC, 0.0671.

On to AGAGATTC, for which the binding signal (normalized occupancy) was 0.0757.

AATGTCAG: the binding signal (normalized occupancy) amounted to 0.0792. As to TTAGGAAA, the binding signal (normalized occupancy) was found to be 0.0734. Regarding ATGGCCAC, the binding signal (normalized occupancy) worked out at 0.0858.

On to CTAGTATA, for which the binding signal (normalized occupancy) stood at 0.0786. With AACTGAGG, the binding signal (normalized occupancy) worked out at 0.0669.

On to CAAGACCG, for which the binding signal (normalized occupancy) is 0.0717. Regarding ATAAGCAG, the binding signal (normalized occupancy) turned out to be 0.0802. The same measure for TCGTAAGA: 0.0723. Take GCGAGCGA: the binding signal (normalized occupancy) was 0.068. For CAACTGGA, the binding signal (normalized occupancy) was 0.0733. For the sequence AACGTCGG, the binding signal (normalized occupancy) is 0.0712.

In the case of CGACCGCG, the binding signal (normalized occupancy) turned out to be 0.0723. On to GAACAGAC, for which the binding signal (normalized occupancy) was found to be 0.0719. As to ACAAAACA, the binding signal (normalized occupancy) was 0.0757. As for ATGTCAGA, the binding signal (normalized occupancy) came out at 0.0793. The same measure for AACAGTTG: 0.0724; for AAACTCCA: 0.07. Under TAGCAAAA stands 0.0703; under CTTTCATC, 0.0723. In the case of ACGTGTTC, the binding signal (normalized occupancy) is 0.104. Under CGGGGGCC stands 0.0732; under GACTATCC, 0.0773.

Regarding GCGGCTGA, the binding signal (normalized occupancy) is 0.0676.

As to ACAGGGTC, the binding signal (normalized occupancy) came out at 0.075. The same measure for AGCAAACC: 0.0757; for GGAGCTGA: 0.0681; for CCTTGAAC: 0.0747. The same measure for ACTACTTG: 0.0765.

Turning to CTTATCTA, the binding signal (normalized occupancy) is 0.0803. Consider AGTTTTTC, for which the binding signal (normalized occupancy) came out at 0.0708.

ATTGAGAC: the binding signal (normalized occupancy) is 0.0715. As for GCGGGTCC, the binding signal (normalized occupancy) amounted to 0.0754. Regarding CAGTGTCG, the binding signal (normalized occupancy) worked out at 0.0688.

Take ACTTATAT: the binding signal (normalized occupancy) amounted to 0.085.

As to ATCGCCAT, the binding signal (normalized occupancy) came to 0.0747.

With AATCTACA, the binding signal (normalized occupancy) was 0.0768. Consider AACTACTC, for which the binding signal (normalized occupancy) came out at 0.0738.

Take TAACAGGA: the binding signal (normalized occupancy) was 0.0786.

Regarding CGCGTGAA, the binding signal (normalized occupancy) amounted to 0.105. On to CTGATGGA, for which the binding signal (normalized occupancy) amounted to 0.0706.

Regarding AACAACGT, the binding signal (normalized occupancy) is 0.084. Regarding ATAGCACC, the binding signal (normalized occupancy) was 0.0765. Consider GGGGTGAC, for which the binding signal (normalized occupancy) is 0.084. As to ATAGGGGG, the binding signal (normalized occupancy) is 0.0844. For CTTTACCA, the binding signal (normalized occupancy) turned out to be 0.0764. The same measure for ATCGGTAC: 0.0728; for CCCCCGAC: 0.0816; for GCGCTGCC: 0.0709. On to TCACGTGA, for which the binding signal (normalized occupancy) was 0.19.

Regarding ACCCATCT, the binding signal (normalized occupancy) worked out at 0.0849. The same measure for CGGACATA: 0.0765. Turning to ACGATCAT, the binding signal (normalized occupancy) was 0.0798.

As to GCCCGTCC, the binding signal (normalized occupancy) is 0.069. Under GGTTTATA stands 0.0783; under CGTTATCA, 0.0801.

In the case of AATACCTG, the binding signal (normalized occupancy) came to 0.0787. Turning to CGTTTGAC, the binding signal (normalized occupancy) turned out to be 0.0718. As for ATGGACTA, the binding signal (normalized occupancy) was 0.0826. Consider AAGAATAA, for which the binding signal (normalized occupancy) turned out to be 0.0792. Turning to TAGAGCCA, the binding signal (normalized occupancy) was found to be 0.0849. With ACACGCCG, the binding signal (normalized occupancy) was determined as 0.1.

In the case of AGCATTAT, the binding signal (normalized occupancy) worked out at 0.0832. For the sequence AGCTTAAT, the binding signal (normalized occupancy) was 0.0701. Take CTTATATA: the binding signal (normalized occupancy) came to 0.0781. Turning to CTAAGCCA, the binding signal (normalized occupancy) came out at 0.0744.

Regarding CACGTGTA, the binding signal (normalized occupancy) turned out to be 0.536. As for ATGATTCG, the binding signal (normalized occupancy) is 0.0784. The same measure for GACGATAC: 0.0737; for CTTAACGA: 0.0704. GCCCACAA: the binding signal (normalized occupancy) is 0.0736. As to GTCTGCGA, the binding signal (normalized occupancy) was 0.0694. Turning to AGTTAGTA, the binding signal (normalized occupancy) is 0.0757. In the case of TCATCACA, the binding signal (normalized occupancy) stood at 0.0891.

Regarding GGCATCGA, the binding signal (normalized occupancy) was 0.0758. As for AGTAAGGC, the binding signal (normalized occupancy) was 0.0714. The same measure for TACTTTGA: 0.0757.

Regarding AATACATT, the binding signal (normalized occupancy) was 0.0787. For the sequence CCGTGGCG, the binding signal (normalized occupancy) amounted to 0.0765. Turning to CCATAGAC, the binding signal (normalized occupancy) amounted to 0.0788.

With ATCATTAA, the binding signal (normalized occupancy) was 0.0751.
